Among all 91,000 compounds or so, about 130 (0.14%) were called active. This list was built around the results that the source calls inconclusive (neither active nor inactive); the mix of calls is not that of the screen. Calls follow the shape of the dose curve; as a rule, active = well fitted inhibition curve with a large enough effect; inconclusive = small, poorly fitted or top-dose-only effect; inactive = flat fitted curve, though single readings scatter. Potencies beside an inconclusive call are fits to weak or partial responses and may not hold up.
These compounds were tested on Uracil-DNA glycosylase (assay: Primary qHTS assay for inhibitors of Activation Induced Cytidine Deaminase (AID): UDG Counterscreen signal). Conditions: FRET deamination/UDG coupled assay, UDG read, 4 h; series mostly up to 115 µM.
Also: nearly all actives have a fitted effect of over 65% in size.
Potency is read from the fitted curve at half-maximal effect; tags tell the direction and shape of the fitted curve.

SMILES | Potency
COc1cc(-c2nc3n(n2)C(c2ccccc2)C2=C(CCCC2=O)N3)cc(OC)c1OC (configuration not stated) | inconclusive: 89.1 µM [inhibitor, single point]
COCCNC(=O)Cc1ccc(NC(=O)N2CCCCc3ccccc32)cc1 | inconclusive: 89.1 µM [inhibitor, single point]
C=CCc1ccccc1OCCSc1nc(-c2ccc(C(C)(C)C)cc2)nc2cc(=O)[nH]n12 | inactive
Clc1cccc(N2CCN(c3nc4ccccc4n4cnnc34)CC2)c1 | inconclusive: 89.1 µM [inhibitor, single point]
Cc1cc(C)c(CSc2nnc(C)n3c2cc2occc23)c(C)c1 | inconclusive: 70.8 µM [inhibitor, partial curve]
COc1ccc(Cl)cc1NC(=O)Cn1c(=O)n(Cc2ccco2)c(=O)c2cccnc21 | inconclusive: 100 µM [inhibitor, single point]
Cc1oc2ncn(CC(C)C)c(=O)c2c1C(=O)N1CCN(c2cccc(C(F)(F)F)c2)CC1 | inconclusive: 89.1 µM [inhibitor, single point]
Cc1cccc(-n2ncc3c(Nc4ccc(Oc5ccc(Cl)cc5)cc4)ncnc32)c1 | inconclusive: 79.4 µM [inhibitor, partial curve, poor fit]
Clc1ccccc1-c1nc(Nc2ccccc2)nc2ccc(Br)cc12 | inconclusive: 14.1 µM [inhibitor, partial curve, poor fit]
CCOC(=O)c1ccc(NC(=O)CC2C(=O)N(c3ccccc3)C(=O)N2Cc2cccs2)cc1 (configuration not stated) | inconclusive: 89.1 µM [inhibitor, single point]
CCc1ccc(CN(C(=O)c2nc(SC)ncc2Cl)C2CCS(=O)(=O)C2)cc1 (configuration not stated) | inconclusive: 89.1 µM [inhibitor, partial curve, poor fit]
CCOC(=O)c1ccc(N2CCN(C(C)=O)CC2)c(NC(=O)c2ccccc2C)c1 | inactive
Cc1ccccc1CNC(=O)c1ccc(Nc2cc(-c3ccc(F)cc3)ncn2)cc1 | inactive
Cc1ccc(OCCCn2c(C3CC(=O)N(c4cccc(Cl)c4)C3)nc3ccccc32)c(C)c1 (configuration not stated) | inconclusive: 100 µM [inhibitor, single point]
COc1ccc(NC(=O)CSc2nnc(-c3ccc(C)cc3)o2)cc1 | inactive
CN(C(=O)CCNC(=O)Cn1cnc2ccccc2c1=O)c1ccccc1F | inconclusive: 89.1 µM [inhibitor, single point]
N#C/C(=C/c1cccc(O)c1)c1nc2ccccc2o1 | inconclusive: 56.2 µM [inhibitor, partial curve, poor fit]

Reference: PubChem BioAssay AID1347430 (National Center for Advancing Translational Sciences (NCATS), 2020)
